The list shows a part of the results. These are noisy estimates, calculated here from bound and input reads.
These sequences were tested against T1, Pho4 (S. cerevisiae) (UniProt P07270) (assay: relative binding free energy (BET-seq); higher = weaker binding). Details: reference: library average.
T1 sequence: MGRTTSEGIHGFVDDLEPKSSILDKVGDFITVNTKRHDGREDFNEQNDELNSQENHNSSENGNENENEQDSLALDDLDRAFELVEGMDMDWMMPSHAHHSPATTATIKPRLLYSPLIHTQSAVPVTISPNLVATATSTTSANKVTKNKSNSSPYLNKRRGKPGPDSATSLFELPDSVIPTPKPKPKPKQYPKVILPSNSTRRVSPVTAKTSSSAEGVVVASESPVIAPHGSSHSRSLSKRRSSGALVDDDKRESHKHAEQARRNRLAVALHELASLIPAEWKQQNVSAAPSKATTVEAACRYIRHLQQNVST

Sequence | relative binding free energy [kJ/mol]
TTGCGCACGTGTTGCG | -0.669
CTTAGCACGTGTAGGG | -0.293
TTTAACACGTGCGTTT | -0.544
GTATTCACGTGTGCGT | 1.63
GGTTGCACGTGATATA | 0.669
GGAGGCACGTGAAAGT | 1.17
ATAGGCACGTGGTGTT | -0.711
AGGTGCACGTGCTTAG | -1.3
TCTGGCACGTGTGGCC | 0.293
TGAGGCACGTGGCGAT | -0.92
TGAGTCACGTGTAGTA | 0.669
AGGGCCACGTGGTTGC | -0.711
TGGTGCACGTGGGACG | -0.711
ATTGGCACGTGTTGTC | -0.126
TATACCACGTGTTTGG | -0.586
TAAGTCACGTGTGTAG | -0.251
AATGGCACGTGTTAAG | 0.0837
AGAATCACGTGAGTGT | 0.879
GGGAACACGTGTTATT | 0.0418
TTTGTCACGTGCACTG | -0.126
ATCTGCACGTGATGTA | 0.586
ATGTCCACGTGGAGAG | 0.46
AATTGCACGTGATGTA | -0.293
GCTGTCACGTGGTAAG | 0.502
AGGTTCACGTGGAAAG | 1.34

Sequence | relative binding free energy [kJ/mol]
GCTCGCACGTGGGTAG | -0.46
ATGCGCACGTGGGTCA | -1
GATGGCACGTGGTGAA | 0.167
TGGGACACGTGGAGGA | 0.126
AGATACACGTGCGTGG | -0.209
GTGAACACGTGTAGTT | 0.209
TTTAGCACGTGTCGAA | -0.126
TCGGTCACGTGAAGAG | 0.628
CATTACACGTGTGTTT | 0.753
ATGTTCACGTGAAGTC | 2.3
TAGGACACGTGTGTTA | 0
CTTTTCACGTGTCTAG | 1
TAGGCCACGTGTATGG | -0.251
ATTTGCACGTGGTAGC | -0.167
TTATACACGTGTACGG | -0.167
GGTTTCACGTGCAGAA | 1.51
TGTTACACGTGTCATG | 0.209
AGGTCCACGTGACGGG | 0
TTACTCACGTGTTTGA | 0.586
ATAGTCACGTGGACAG | 0.669
GTTATCACGTGAAGGT | 1.51
GAGAACACGTGTATTG | 0.837
AATGGCACGTGTACGG | -0.0837
ATTTTCACGTGGGGCA | 0.209
CTTCGCACGTGGGTTT | -0.293

Sequence | relative binding free energy [kJ/mol]
GATGGCACGTGATTGG | 0.293
CGATGCACGTGTCGGT | 0.544
GTTTTCACGTGGCGGA | 1.34
TTGGGCACGTGTCGTT | -0.46
CATCGCACGTGAGTGG | 0.711
AGTTACACGTGGGTTG | -0.418
ATCAACACGTGGTGGT | 0.126
TCTGGCACGTGTGGAG | 0.126
AGTAACACGTGTGGGG | 0.293
AAGAGCACGTGTTCGG | -0.544
GCGGTCACGTGTAATG | 1.3
GGTGGCACGTGAATGG | 1
TTGGGCACGTGCGGGA | -0.377
TAGGGCACGTGCCGTA | -0.502
TGGTCCACGTGTGGTT | 0.377
TCGCGCACGTGGCGGG | -1.13
TTTGTCACGTGTTCCT | 0.377
TGAGTCACGTGTAAAG | 0.962
GTTGTCACGTGTCATG | 1.09
AGATGCACGTGCTGGT | -0.795
ATTAACACGTGTGGCG | -0.0418
GGCGCCACGTGCTGGG | -0.46
CGTGTCACGTGTGTTT | 0.209
TAGCGCACGTGGGGTA | -1.42
ATAGGCACGTGCCGTT | -0.628

Sequence | relative binding free energy [kJ/mol]
AATAGCACGTGTAGTA | -0.669
AGTTGCACGTGACGGT | 0.711
TGGTCCACGTGGTTAA | -0.753
GTGGACACGTGCTAGG | -0.544
ATTGACACGTGGGCTG | -0.711
AGGTGCACGTGTGGCG | -0.0418
GTACGCACGTGTGTGC | -0.46
GTCGCCACGTGTTTGG | 0.335
TTAGGCACGTGTGGAA | -0.669
TGTTGCACGTGGCAGC | -0.502
GGTTCCACGTGTGGAT | 1.3
GAGGCCACGTGTATGG | 0.0418
AAAGTCACGTGCGTTG | 0.0837
TACTACACGTGTGTGT | 0.669
ATTATCACGTGATGCT | 0.586
ATAGTCACGTGAGTGG | 1.51
GAGGGCACGTGCTGTA | -0.962
GTGAGCACGTGTCGTT | 0.377
TAGTGCACGTGTTATG | -0.46
AGTGTCACGTGGTCTC | -0.0837
AACTGCACGTGTTGAG | 0.251
ACGTACACGTGGTCGG | 0.46
ACGGGCACGTGTAATG | 0.0837
AGTCACACGTGTGTGG | 0.46
GTTTACACGTGTCGTA | 0.92

Sequence | relative binding free energy [kJ/mol]
AATTTCACGTGTCGAG | 1.51
TTAGACACGTGAGCGT | 0.209
TGGATCACGTGATAGT | 1.92
TTAGTCACGTGAGGTT | 0.962
TAGCACACGTGGTTGC | 1.21
GGGGTCACGTGGATTA | 0.46
GGCAGCACGTGATAGG | 0.544
TAGAACACGTGTGTTG | -0.418
AATGTCACGTGTTAAT | 0.502
CAATTCACGTGTGGGA | 1.05
ATATTCACGTGTTAAA | 0.795
AGCATCACGTGTGTGT | 0.46
TGGGGCACGTGGCGTG | -0.418
CAGCGCACGTGGGGCG | -1.05
AGCGGCACGTGTGGTT | -0.209
AGAATCACGTGGGTGG | 0
TTATGCACGTGGGTAC | -1.05
TTTAACACGTGGGAAG | -0.669
TGGGGCACGTGACGGC | 0.544
ATTTTCACGTGATTCA | 0.795
CGAGTCACGTGATGGA | 1.17
TTGTGCACGTGGTGTT | -0.418
TTTTACACGTGATTGT | 1.34
GGAGTCACGTGGCTGA | 0.0837
GAGAACACGTGGGTAG | -0.502

Sequence | relative binding free energy [kJ/mol]
TAATTCACGTGAGCGG | 1.3
TTTGTCACGTGTAGAT | 0.879
CGGTTCACGTGTATAT | 1.46
GTCGTCACGTGGATGA | 0.502
GTGGTCACGTGGTAGA | 0.669
TGGATCACGTGTTGAC | 0.335
TGTAACACGTGGGGTA | -0.628
AGGGGCACGTGTTGCT | -0.46
AATGTCACGTGAGAGG | 1.63
TGCTTCACGTGTTCGT | 1
GGGGGCACGTGACCTG | -0.0837
GAGGTCACGTGGGGCT | 0.46
TACGGCACGTGCGTTT | -0.502
GGTTTCACGTGATAGT | 1.8
ATTGTCACGTGCTGGA | 0.335
GCTATCACGTGTGGGA | 0.544
AGCGTCACGTGGGAAT | 0.293
ATGTACACGTGGTGCG | -0.418
TAGATCACGTGTTCTT | 0.335
GAGTCCACGTGTGGTT | 0.628
GGTCTCACGTGGCTTT | 1

— the BET-seq Pho4 binding data (Le et al. 2018)
